According to paper PMC4336329 (PLoS ONE, 2015):
Screen size: about 310,000 compounds; about 2,200 (0.71%) showed an effect of 50% or more. The effect is printed as a negative number. Some of the results follow.

biological target: human ether-à-go-go-related gene (hERG) potassium channel (human, UniProt Q12809); assay: primary screen, population patch clamp on CHO cells stably expressing hERG
Sequence (Q12809 whole entry, looked up): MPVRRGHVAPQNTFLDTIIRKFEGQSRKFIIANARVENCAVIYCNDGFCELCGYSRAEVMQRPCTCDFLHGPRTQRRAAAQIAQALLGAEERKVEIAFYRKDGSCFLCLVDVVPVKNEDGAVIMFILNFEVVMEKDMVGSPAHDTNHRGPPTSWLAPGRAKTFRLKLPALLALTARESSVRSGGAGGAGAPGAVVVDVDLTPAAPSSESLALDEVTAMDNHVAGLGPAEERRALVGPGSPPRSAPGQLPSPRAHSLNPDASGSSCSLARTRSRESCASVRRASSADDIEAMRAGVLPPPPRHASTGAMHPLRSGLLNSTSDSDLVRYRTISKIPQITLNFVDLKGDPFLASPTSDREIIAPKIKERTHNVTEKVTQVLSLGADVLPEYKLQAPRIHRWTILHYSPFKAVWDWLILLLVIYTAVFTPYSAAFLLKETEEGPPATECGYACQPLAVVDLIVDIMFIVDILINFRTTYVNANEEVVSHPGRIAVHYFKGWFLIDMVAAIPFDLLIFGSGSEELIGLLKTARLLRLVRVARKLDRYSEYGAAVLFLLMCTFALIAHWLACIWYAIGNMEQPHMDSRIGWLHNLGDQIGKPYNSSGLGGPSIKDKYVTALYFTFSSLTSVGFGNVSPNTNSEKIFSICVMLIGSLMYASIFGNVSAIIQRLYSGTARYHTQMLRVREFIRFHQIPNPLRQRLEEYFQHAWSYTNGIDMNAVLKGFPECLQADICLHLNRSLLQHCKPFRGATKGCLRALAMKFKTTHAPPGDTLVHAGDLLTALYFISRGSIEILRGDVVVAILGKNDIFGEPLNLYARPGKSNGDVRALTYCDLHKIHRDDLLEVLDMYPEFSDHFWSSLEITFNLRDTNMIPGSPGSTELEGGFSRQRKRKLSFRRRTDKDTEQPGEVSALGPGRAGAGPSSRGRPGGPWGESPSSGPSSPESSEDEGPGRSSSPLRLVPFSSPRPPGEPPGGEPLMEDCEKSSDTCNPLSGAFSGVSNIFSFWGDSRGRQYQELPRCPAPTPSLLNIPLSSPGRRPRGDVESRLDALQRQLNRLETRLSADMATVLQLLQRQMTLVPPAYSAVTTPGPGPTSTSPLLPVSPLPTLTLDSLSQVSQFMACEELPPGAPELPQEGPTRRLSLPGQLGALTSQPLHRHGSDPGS

Compound	hERG current change (%, negative = inhibition) at 1uM [%]
CCOC(=O)N1CCN(C(=O)c2ccc(CNS(=O)(=O)c3ccc(NC(C)=O)cc3)cc2)CC1	12
COc1ccccc1CNC(=O)CS(=O)Cc1nc(-c2ccccc2C)oc1C (stereo not drawn)	11.4
O=C(C1CCCN(S(=O)(=O)c2cccs2)C1)N1CCC(N2CCCCC2)CC1 (stereo not drawn)	-34.9
COc1ccccc1C(=O)N/C(=C\c1cn(S(=O)(=O)N(C)C)c2ccccc12)C(=O)N1CCCCC1	13
CCN(CC)S(=O)(=O)c1ccc(C(=O)Nc2ccc(OCC(=O)N3CCOCC3)cc2)cc1	11.1
CC(=O)c1ccc(NC(=S)N(CCCN(C)C)Cc2ccccc2)cc1	-23
COc1cc(NC(=O)c2ccc(-c3cccc([N+](=O)[O-])c3)o2)ccc1NC(=O)C(C)C	14
COC(=O)c1c(NC(=O)Cn2cc([N+](=O)[O-])cn2)sc2c1CCC2	12.3
NC(=O)CSc1nnc(-c2ccccc2F)n1C1CC1	13
CCCSC1=C(C#N)C(c2ccc(O)c(OC)c2)CC(=O)N1 (stereo not drawn)	3.36
CC(=O)N[C@H]1C[C@@H]1c1ccccc1	-4.54
C[C@H](NC(=O)C1CCC(CNC(=O)[C@@H]2CCCN2C(=O)OC(C)(C)C)CC1)C(=O)O (stereo partly drawn)	4.05
CNCCCc1[nH]nc(N)c1C#N	13.2
COc1cc(OC)c(C2C(C(=O)Nc3ccccc3)=C(C)Nc3ncnn32)cc1OC (stereo not drawn)	1.27
Cc1ccc2c(c1)N(CC(=O)NC1CCCC1)C(=O)CO2	14.6
Cc1nn(CC(=O)NCCCN2CCN(Cc3ccccc3)CC2)c(=O)c2cc(-c3ccccc3)nn12	-10
CCC(Oc1ccccc1)C(=O)Nc1ccccc1OC (stereo not drawn)	14.1
Cc1ccc(C(=O)N2CCN(S(=O)(=O)c3ccccc3)CC2)s1	6.3
CC(O)CNc1cc(N)c([N+](=O)[O-])cc1[N+](=O)[O-] (stereo not drawn)	4.77
O=C(CCC(=O)c1cccs1)NCC(c1ccc(F)cc1)N1CCOCC1 (stereo not drawn)	8.37
C=CCOc1ccc(/C=C2\SC(=S)N(N3CCOCC3)C2=O)cc1	17
COc1ccc(OCC(=O)NNC(=O)CCc2ccccc2)cc1	5.69
O=C(CC1C(=O)NCCN1Cc1cccc(Oc2ccccc2)c1)NCC1CCOCC1 (stereo not drawn)	12

Compound	hERG current change (%, negative = inhibition) at 1uM [%]
CCC(C)(C)NC(=O)Cc1ccc(C)cc1	0.522
COc1ccc2[nH]c(=O)c(CN(Cc3cccnc3)C(=O)Nc3ccccc3)cc2c1	-6.04
CCOC(=O)c1[nH]c2ccc(C(=O)OC)cc2c1C(=O)OCC	15
CCS(=O)(=O)NCCCc1ccccc1	-5.33
COc1ccc(N(CC(=O)Nc2cccc(C)c2)S(=O)(=O)c2ccc(C)cc2)cc1OC	14.7
C=CCOc1cccc(C(=O)N2CCCC(CNS(=O)(=O)c3cccs3)C2)c1 (stereo not drawn)	7.55
CCOC(=O)c1ccc(-n2c(-c3ccco3)nc3ccccc3c2=O)cc1	12
O=C1c2ccccc2C(=O)N1CCC1=CCCCC1	10.7
O=C(CNC(=O)[C@@H]1Cc2ccccc2CN1)Nc1ccc2c(c1)OCO2	22
CN(CCC#N)C(=S)Nc1ccc(Oc2ccccc2)cc1	-7.19
CCOc1ccc(CN2CCN(Cc3ccsc3)C(CCO)C2)cc1CO (stereo not drawn)	-17.3
CCc1nnc(NC(=O)CCC(=O)O)s1	9.24
C/C(=N\N1C(=O)c2ccccc2C1=O)c1cccc([N+](=O)[O-])c1	15.6
CSc1nc(C)cc(OCC(=O)N/N=C/c2ccccc2O)n1	13.5
CCOc1cc(NC(=S)NCCCN2CCOCC2)c(OCC)cc1NC(=O)C1CCCCC1	2.06
COC/C=C/C1=CC2=CC(=O)C(C)(OC(=O)c3cnc4ccccc4n3)C(=O)C2=CN1CCc1c[nH]c2ccccc12 (stereo not drawn)	17.1
Cc1cc(NC(=O)C2CCCC2)nc2c1c(=O)oc1ccccc12	13.6
CC(=O)c1sc(NC(=O)c2c(F)cccc2F)nc1C	10.3
CN1CCN(S(=O)(=O)c2cccc(C(=O)Nc3sccc3C#N)c2)CC1	10.5
Cc1noc(C(=O)Nc2ccccc2C(F)(F)F)c1Cl	8.55
Fc1ccc(CNn2cnnc2SCc2ccc(F)cc2)cc1	-6.12
O=C(Nc1ccc2c(c1)OCO2)C1CCN(Cc2cc3c(cc2O)OCO3)CC1	2.07
CCCCn1c(N)c(N(CCOC)C(=O)CN2C(=O)c3ccccc3C2=O)c(=O)[nH]c1=O	4.67

Compound	hERG current change (%, negative = inhibition) at 1uM [%]
O=C(NC(=S)Nc1ccc(S(=O)(=O)Nc2nccs2)cc1)C1CC1	21.5
O=C1NC(=O)N(c2ccc3c(c2)OCO3)C(=O)/C1=C/c1ccc(N2CCCCC2)o1	19.1
Cc1ccc(C)c(Cn2c(CN(C)Cc3ccccc3)nc3c2c(=O)n(C)c(=O)n3C)c1	-3.01
O=C(CSc1nnc(COc2ccc3c(c2)CCCC3)o1)Nc1ccc(F)cc1	16.1
Nc1nonc1C(=O)NCCNC(=O)c1ccc(Cl)c(Cl)c1	8.82
CC(=O)N1CCN(C(=O)c2cc(S(=O)(=O)N3CCCCC3)ccc2Cl)CC1	9.05
C=CCSc1ncc(CO)n1Cc1ccccc1	2.1
COCCCC1CCN(C(=O)C2CCC(=O)N(Cc3cccc(F)c3)C2)CC1 (stereo not drawn)	10.3
N=c1c(C(=O)NC2CCCC2)cc2c(=O)n3ccccc3nc2n1CCN1CCOCC1	-94.2
COc1ccc(/C=N/NC(=O)C(C)n2cnc3ccccc3c2=O)cc1 (stereo not drawn)	-35.5
CCCc1nnc(NC(=O)c2cc(OC)cc(OC)c2)s1	3.36
O=C(Nc1ccc(F)cc1)c1ccc(-n2ccnc2)nc1	-3.28
CC(=O)N1CCN(Cc2ccc(Br)s2)CC1	8.94
Cc1ccc(NC(=O)CSCC(=O)NCCc2ccccc2)cc1	4.35
Cc1[nH]c(=O)[nH]c(=O)c1/C=N\NC(=O)CCc1ccc(OC(C)C)cc1	20.3
C=CC[N+](C)(C)CCN1C(=O)C2C(c3ccccc3)C=CC(c3ccccc3)C2C1=O.[Br-] (stereo not drawn)	10.9
CN(Cc1ccon1)Cc1cn(C)nc1-c1ccc2c(c1)OCCO2	17.3
Cc1nc2ccccn2c1C(=O)N/N=C/c1ccc([N+](=O)[O-])o1	-21
CCOC(=O)c1c(NC(=O)c2cc(CC(C)C)on2)sc(C(C)=O)c1C	12.5
CCN(CC)c1ccc(NC(=O)CN(C)Cc2cccs2)cc1	16.9
CCc1c(C)sc2nc(C(C)C)nc(SCC(=O)N3CCc4ccccc4C3)c12	4.59
COCC(=O)N(C)c1nnc(-c2ccccn2)s1	8.82
C(=N\c1nccs1)/Nc1nccs1	13.8

Compound	hERG current change (%, negative = inhibition) at 1uM [%]
COc1ccc(Nc2ncnc3c2cnn3Cc2ccc(C)cc2)cc1	7.63
Cc1ccnc(NC(=O)C2COc3ccccc3O2)c1 (stereo not drawn)	7.09
Cc1cccc(NC(=O)Cn2nc(C(F)(F)F)cc2C2CC2)c1	-10.1
COc1ccc(N2C(=O)CC(Nc3cccc([N+](=O)[O-])c3)C2=O)cc1 (stereo not drawn)	4.74
CCN1C(=O)CC(NC2CCN(C(=O)c3ccc(F)cc3)CC2)C1=O (stereo not drawn)	14.8
CCC(=O)Nc1nnc(SCC(=O)N2c3ccccc3CC2C)s1 (stereo not drawn)	9.01
Cc1ccc(OCC(=O)c2ccc(Cl)s2)c([N+](=O)[O-])n1	5.82
Cc1ccc2c(c1)N(C)/C(=C/c1cccc[n+]1CCO)S2.[I-]	15.9
CC(=O)N1CCN(CCN=CC2=C(O)CC(c3ccco3)CC2=O)CC1 (stereo not drawn)	2.39
CN(C(=O)c1ccc(=O)[nH]c1)C1(C(=O)NC2CCCCC2)CCCCC1	15.2
COc1cc(C)c(C)cc1S(=O)(=O)N1CCN(Cc2ccc3c(c2)OCO3)CC1	10.9
CCOc1ccc(C(C)NC(=O)c2ccccc2F)cc1 (stereo not drawn)	11.5
CCC(C(=O)OCC(=O)Nc1c(C)n(C)n(-c2ccccc2)c1=O)c1ccccc1 (stereo not drawn)	5.41
COCC(=O)N(C)C1(c2nnnn2CCOC(=O)Nc2ccc(Cl)cc2)CCCCC1	13.3
CCCC1=NN2C(=N)/C(=C\c3ccc(OCCOc4ccc(NC(C)=O)cc4)c(OC)c3)C(=O)N=C2S1	12.4
CC(C)CN(CC(C)C)C1=N/C(=C\c2ccco2)C(=O)N1c1ccccc1	8.79
Cc1cc[n+](CC(=O)c2ccc3c(c2)OCCO3)cc1.[Br-]	-5.5
COCc1nnc(NS(=O)(=O)c2ccc(F)cc2)s1	6.71
Brc1ccc(NCc2nnc3n2CCCCC3)cc1	1.22
Cc1nnc(NC(=O)c2cccc(S(=O)(=O)N3CCN(C)CC3)c2)s1	9.74
CS(=O)(=O)c1ccc(Cl)c(S(=O)(=O)NCc2ccccc2)c1	16.7
